Assay results as given in article PMC9911399, “Two distinct binding modes provide the RNA-binding protein RbFox with extraordinary sequence specificity”.
Positions count from the first letter of the chain named. The list shows a part of the results.

T1: RBFOX1 RRM (Homo sapiens, UniProt Q9NWB1 109-208)
T1 sequence: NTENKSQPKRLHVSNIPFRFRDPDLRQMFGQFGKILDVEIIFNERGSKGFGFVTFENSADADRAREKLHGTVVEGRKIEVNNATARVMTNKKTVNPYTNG

B1: AUGCGUC (DNA:RNA)
RNA: GGGAGACCGGAAUUCAGAUUGUCCAUGCGUCUUAAAUCCCGUCGUAGCCACCA
DNA 1: CAATCTGAATTCCGGTCTCCC
DNA 2: TGGTGGCTACGACGGGATT
B2: CCAGACC (DNA:RNA)
RNA: B1 RNA with A25C, U26C, G27A, C28G, G29A, U30C
DNA 1: CAATCTGAATTCCGGTCTCCC
DNA 2: TGGTGGCTACGACGGGATT
B3: UAAUGUU (DNA:RNA)
RNA: B1 RNA with A25U, U26A, G27A, C28U, C31U
DNA 1: CAATCTGAATTCCGGTCTCCC
DNA 2: TGGTGGCTACGACGGGATT
B4: UUUCCCU (DNA:RNA)
RNA: B1 RNA with A25U, G27U, G29C, U30C, C31U
DNA 1: CAATCTGAATTCCGGTCTCCC
DNA 2: TGGTGGCTACGACGGGATT
B5: CGUGCGC (DNA:RNA)
RNA: B1 RNA with A25C, U26G, G27U, C28G, G29C, U30G
DNA 1: CAATCTGAATTCCGGTCTCCC
DNA 2: TGGTGGCTACGACGGGATT
B6: CAGACCA (DNA:RNA)
RNA: B1 RNA with A25C, U26A, C28A, G29C, U30C, C31A
DNA 1: CAATCTGAATTCCGGTCTCCC
DNA 2: TGGTGGCTACGACGGGATT
B7: UAGUGGU (DNA:RNA)
RNA: B1 RNA with A25U, U26A, C28U, U30G, C31U
DNA 1: CAATCTGAATTCCGGTCTCCC
DNA 2: TGGTGGCTACGACGGGATT
B8: GUACUAA (DNA:RNA)
RNA: B1 RNA with A25G, G27A, G29U, U30A, C31A
DNA 1: CAATCTGAATTCCGGTCTCCC
DNA 2: TGGTGGCTACGACGGGATT
B9: ACAUUGA (DNA:RNA)
RNA: B1 RNA with U26C, G27A, C28U, G29U, U30G, C31A
DNA 1: CAATCTGAATTCCGGTCTCCC
DNA 2: TGGTGGCTACGACGGGATT
B10: AGGGCAC (DNA:RNA)
RNA: B1 RNA with U26G, C28G, G29C, U30A
DNA 1: CAATCTGAATTCCGGTCTCCC
DNA 2: TGGTGGCTACGACGGGATT
B11: GAUGGAC (DNA:RNA)
RNA: B1 RNA with A25G, U26A, G27U, C28G, U30A
DNA 1: CAATCTGAATTCCGGTCTCCC
DNA 2: TGGTGGCTACGACGGGATT
B12: UUAGUUU (DNA:RNA)
RNA: B1 RNA with A25U, G27A, C28G, G29U, C31U
DNA 1: CAATCTGAATTCCGGTCTCCC
DNA 2: TGGTGGCTACGACGGGATT
B13: GAGACAA (DNA:RNA)
RNA: B1 RNA with A25G, U26A, C28A, G29C, U30A, C31A
DNA 1: CAATCTGAATTCCGGTCTCCC
DNA 2: TGGTGGCTACGACGGGATT
B14: GUCAUGC (DNA:RNA)
RNA: B1 RNA with A25G, G27C, C28A, G29U, U30G
DNA 1: CAATCTGAATTCCGGTCTCCC
DNA 2: TGGTGGCTACGACGGGATT
B15: GGUAUAC (DNA:RNA)
RNA: B1 RNA with A25G, U26G, G27U, C28A, G29U, U30A
DNA 1: CAATCTGAATTCCGGTCTCCC
DNA 2: TGGTGGCTACGACGGGATT
B16: CGGAAGU (DNA:RNA)
RNA: B1 RNA with A25C, U26G, C28A, G29A, U30G, C31U
DNA 1: CAATCTGAATTCCGGTCTCCC
DNA 2: TGGTGGCTACGACGGGATT
B17: GAAUGCA (DNA:RNA)
RNA: B1 RNA with A25G, U26A, G27A, C28U, U30C, C31A
DNA 1: CAATCTGAATTCCGGTCTCCC
DNA 2: TGGTGGCTACGACGGGATT
B18: UGGACAA (DNA:RNA)
RNA: B1 RNA with A25U, U26G, C28A, G29C, U30A, C31A
DNA 1: CAATCTGAATTCCGGTCTCCC
DNA 2: TGGTGGCTACGACGGGATT
B19: UCGAGCC (DNA:RNA)
RNA: B1 RNA with A25U, U26C, C28A, U30C
DNA 1: CAATCTGAATTCCGGTCTCCC
DNA 2: TGGTGGCTACGACGGGATT
B20: GAGGUAA (DNA:RNA)
RNA: B1 RNA with A25G, U26A, C28G, G29U, U30A, C31A
DNA 1: CAATCTGAATTCCGGTCTCCC
DNA 2: TGGTGGCTACGACGGGATT
B21: CUCUAAA (DNA:RNA)
RNA: B1 RNA with A25C, G27C, C28U, G29A, U30A, C31A
DNA 1: CAATCTGAATTCCGGTCTCCC
DNA 2: TGGTGGCTACGACGGGATT
B22: UGGUUUC (DNA:RNA)
RNA: B1 RNA with A25U, U26G, C28U, G29U
DNA 1: CAATCTGAATTCCGGTCTCCC
DNA 2: TGGTGGCTACGACGGGATT
B23: UUUGCUA (DNA:RNA)
RNA: B1 RNA with A25U, G27U, C28G, G29C, C31A
DNA 1: CAATCTGAATTCCGGTCTCCC
DNA 2: TGGTGGCTACGACGGGATT
B24: UUGCAGU (DNA:RNA)
RNA: B1 RNA with A25U, G29A, U30G, C31U
DNA 1: CAATCTGAATTCCGGTCTCCC
DNA 2: TGGTGGCTACGACGGGATT
B25: UAUUGAU (DNA:RNA)
RNA: B1 RNA with A25U, U26A, G27U, C28U, U30A, C31U
DNA 1: CAATCTGAATTCCGGTCTCCC
DNA 2: TGGTGGCTACGACGGGATT
B26: CUAGUAC (DNA:RNA)
RNA: B1 RNA with A25C, G27A, C28G, G29U, U30A
DNA 1: CAATCTGAATTCCGGTCTCCC
DNA 2: TGGTGGCTACGACGGGATT
B27: AAUUUCU (DNA:RNA)
RNA: B1 RNA with U26A, G27U, C28U, G29U, U30C, C31U
DNA 1: CAATCTGAATTCCGGTCTCCC
DNA 2: TGGTGGCTACGACGGGATT
B28: UAGCCCA (DNA:RNA)
RNA: B1 RNA with A25U, U26A, G29C, U30C, C31A
DNA 1: CAATCTGAATTCCGGTCTCCC
DNA 2: TGGTGGCTACGACGGGATT
B29: AACCGUU (DNA:RNA)
RNA: B1 RNA with U26A, G27C, C31U
DNA 1: CAATCTGAATTCCGGTCTCCC
DNA 2: TGGTGGCTACGACGGGATT
B30: GGAGCAA (DNA:RNA)
RNA: GGGAGACCGGAAUUCAGAUUGUCCGGAGCAAUUAAAUCCCGUCGUAGCCACCA
DNA 1: CAATCTGAATTCCGGTCTCCC
DNA 2: TGGTGGCTACGACGGGATT
B31: CAAUCCA (DNA:RNA)
RNA: B30 RNA with G25C, G26A, G28U, A30C
DNA 1: CAATCTGAATTCCGGTCTCCC
DNA 2: TGGTGGCTACGACGGGATT

These binders were tested against T1, RBFOX1 RRM (assay: EMSA; HiTS-Eq, 1 nM pool, 10 min; buffer printed only for the single-RNA assays: 10 mM Tris pH 7.5, 150 mM NaCl, 3.4 mM EDTA, 0.001% NP-40, 30 C). Settings: tags: His6 N-terminal (pET28a); label: 5' 32P.
Procedure, shortened: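 Purified RbFox RRM, wild type or mutant, was incubated for 10 min in 50 µL with 1 nM of a 5′-radiolabelled RNA pool carrying 7 randomized nucleotides, whose flanks were annealed to DNA oligonucleotides, over a series of increasing protein concentrations. Unbound RNA was resolved on 8% native PAGE, cut out, reverse-transcribed, barcoded by PCR and sequenced on an Illumina HiSeq 2500. Relative association constants were derived from changes in read counts for each RNA species versus the control reaction and normalised to the cognate motif.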

| Binder | binding signal |
| --- | --- |
| B1 | 0.0134 KA relative to UGCAUGU |
| B2 | 0.004 KA relative to UGCAUGU |
| B3 | 0.0139 KA relative to UGCAUGU |
| B4 | 0.00784 KA relative to UGCAUGU |
| B5 | 0.0168 KA relative to UGCAUGU |
| B6 | 0.000472 KA relative to UGCAUGU |
| B7 | 0.0124 KA relative to UGCAUGU |
| B8 | 0.00437 KA relative to UGCAUGU |
| B9 | 0.00616 KA relative to UGCAUGU |
| B10 | 0.0192 KA relative to UGCAUGU |
| B11 | 0.00792 KA relative to UGCAUGU |
| B12 | 0.0101 KA relative to UGCAUGU |
| B13 | 0.00474 KA relative to UGCAUGU |
| B14 | 0.0144 KA relative to UGCAUGU |
| B15 | 0.0108 KA relative to UGCAUGU |
| B16 | 0.0236 KA relative to UGCAUGU |

| Binder | binding signal |
| --- | --- |
| B17 | 0.0187 KA relative to UGCAUGU |
| B18 | 0.0145 KA relative to UGCAUGU |
| B19 | 0.00744 KA relative to UGCAUGU |
| B20 | 0.0148 KA relative to UGCAUGU |
| B21 | 0.00104 KA relative to UGCAUGU |
| B22 | 0.0304 KA relative to UGCAUGU |
| B23 | 0.0167 KA relative to UGCAUGU |
| B24 | 0.0159 KA relative to UGCAUGU |
| B25 | 0.0185 KA relative to UGCAUGU |
| B26 | 0.0032 KA relative to UGCAUGU |
| B27 | 0.00573 KA relative to UGCAUGU |
| B28 | 0.00357 KA relative to UGCAUGU |
| B29 | 0.0018 KA relative to UGCAUGU |
| B30 | 0.0102 KA relative to UGCAUGU |
| B31 | 0.000796 KA relative to UGCAUGU |
